The values below come from article PMC12820563, “FoxP3 forms a head-to-head dimer in vivo and stabilizes its multimerization on adjacent microsatellites”.

This is one part of the list.

For this experiment, the target named is T1, MBP-FoxP1dN (Mus musculus, UniProt P58462 326-579).
T1 sequence: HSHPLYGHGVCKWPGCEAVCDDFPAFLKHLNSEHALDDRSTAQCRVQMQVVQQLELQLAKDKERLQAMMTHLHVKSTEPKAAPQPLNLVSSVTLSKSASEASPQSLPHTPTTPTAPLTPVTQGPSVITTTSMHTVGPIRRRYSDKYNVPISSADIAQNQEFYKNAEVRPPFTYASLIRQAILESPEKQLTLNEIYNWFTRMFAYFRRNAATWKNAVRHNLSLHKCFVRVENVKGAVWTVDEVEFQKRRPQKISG
Briefly: PD-seq (MBP pull-down with sequencing); 20 mM Tris-HCl pH 7.5, 100 mM NaCl, 1.5 mM MgCl2, 0.4 uM protein, 0.1 uM dsDNA library, 30 min, room temperature, amylose pull-down; high values mean tight binding. As to conditions: protein: recombinant; tags: His6-MBP; chain copies: 2; dsDNA, one strand shown. The procedure, abridged: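 Protein and DNA were mixed at 0.4 µM and 0.1 µM and held for 30 min at room temperature in Tris pH 7.5 buffer with NaCl and MgCl2; the protein was a His6-MBP-tagged, N-terminally truncated mouse FoxP3 or FoxP1 fragment from E. coli, and the DNA a Klenow-filled double-stranded degenerate library. Amylose resin captured the complexes, which were washed three times. Binding is read as reads-per-million enrichment of pull-down versus input after Illumina sequencing, with replicates pooled.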
For the sequence “GATGATTGTTCTCCCAGCTGATGAATTTACCGAGTCGAGTAAACAAATTTTCCTAATCTTTCTGTTCAAGCGCCATCTAC”, the binding signal was 1.13 RPM ratio (pull-down/input).
Turning to “GATGATTGTTCTCCCAGCTGATGAATTCCCACGATCGAGTAAACAAATTTTCCTAATCTTTCTGTTCAAGCGCCATCTAC”, the binding signal is 0.81 RPM ratio (pull-down/input).
Take “GATGATTGTTCTCCCAGCTGATGAATTAATGTTGTCGAGTAAACAAATTTTCCTAATCTTTCTGTTCAAGCGCCATCTAC”: the binding signal was 2.64 RPM ratio (pull-down/input).
Next, “GATGATTGTTCTCCCAGCTGATGAATTGGAATAATCGAGTAAACAAATTTTCCTAATCTTTCTGTTCAAGCGCCATCTAC”: 1.14 RPM ratio (pull-down/input).
As to “GATGATTGTTCTCCCAGCTGATGAATTTCCTGGCTCGAGTAAACAAATTTTCCTAATCTTTCTGTTCAAGCGCCATCTAC”, the binding signal is 0.756 RPM ratio (pull-down/input).
Next, “GATGATTGTTCTCCCAGCTGATGAATTATTTTGCTCGAGTAAACAAATTTTCCTAATCTTTCTGTTCAAGCGCCATCTAC”: 1.29 RPM ratio (pull-down/input); “GATGATTGTTCTCCCAGCTGATGAATTGACCGGCTCGAGTAAACAAATTTTCCTAATCTTTCTGTTCAAGCGCCATCTAC”: 0.831 RPM ratio (pull-down/input); “GATGATTGTTCTCCCAGCTGATGAATTTAAAAATTCGAGTAAACAAATTTTCCTAATCTTTCTGTTCAAGCGCCATCTAC”: 0.915 RPM ratio (pull-down/input).
In the case of “GATGATTGTTCTCCCAGCTGATGAATTGCCGCTCTCGAGTAAACAAATTTTCCTAATCTTTCTGTTCAAGCGCCATCTAC”, the binding signal was 0.884 RPM ratio (pull-down/input).
For “GATGATTGTTCTCCCAGCTGATGAATTAGTATAATCGAGTAAACAAATTTTCCTAATCTTTCTGTTCAAGCGCCATCTAC”, the binding signal is 1.2 RPM ratio (pull-down/input).
For the sequence “GATGATTGTTCTCCCAGCTGATGAATTACTTATCTCGAGTAAACAAATTTTCCTAATCTTTCTGTTCAAGCGCCATCTAC”, the binding signal is 1.09 RPM ratio (pull-down/input).
Regarding “GATGATTGTTCTCCCAGCTGATGAATTATATGGTTCGAGTAAACAAATTTTCCTAATCTTTCTGTTCAAGCGCCATCTAC”, the binding signal was 1.01 RPM ratio (pull-down/input).
Take “GATGATTGTTCTCCCAGCTGATGAATTGGGGCTTTCGAGTAAACAAATTTTCCTAATCTTTCTGTTCAAGCGCCATCTAC”: the binding signal was 0.874 RPM ratio (pull-down/input).
Consider “GATGATTGTTCTCCCAGCTGATGAATTTCCACCGTCGAGTAAACAAATTTTCCTAATCTTTCTGTTCAAGCGCCATCTAC”, for which the binding signal is 0.801 RPM ratio (pull-down/input).
On to “GATGATTGTTCTCCCAGCTGATGAATTTACTTGGTCGAGTAAACAAATTTTCCTAATCTTTCTGTTCAAGCGCCATCTAC”, for which the binding signal is 1.23 RPM ratio (pull-down/input).
Consider “GATGATTGTTCTCCCAGCTGATGAATTCTCTGTGTCGAGTAAACAAATTTTCCTAATCTTTCTGTTCAAGCGCCATCTAC”, for which the binding signal was 0.889 RPM ratio (pull-down/input).
For the sequence “GATGATTGTTCTCCCAGCTGATGAATTAATAACGTCGAGTAAACAAATTTTCCTAATCTTTCTGTTCAAGCGCCATCTAC”, the binding signal was 1.19 RPM ratio (pull-down/input).
Regarding “GATGATTGTTCTCCCAGCTGATGAATTGGGGTTATCGAGTAAACAAATTTTCCTAATCTTTCTGTTCAAGCGCCATCTAC”, the binding signal is 0.954 RPM ratio (pull-down/input).
In the case of “GATGATTGTTCTCCCAGCTGATGAATTCAATCGCTCGAGTAAACAAATTTTCCTAATCTTTCTGTTCAAGCGCCATCTAC”, the binding signal was 0.863 RPM ratio (pull-down/input).
On to “GATGATTGTTCTCCCAGCTGATGAATTAGAGGACTCGAGTAAACAAATTTTCCTAATCTTTCTGTTCAAGCGCCATCTAC”, for which the binding signal is 0.842 RPM ratio (pull-down/input).
Take “GATGATTGTTCTCCCAGCTGATGAATTCCGGTGCTCGAGTAAACAAATTTTCCTAATCTTTCTGTTCAAGCGCCATCTAC”: the binding signal was 0.821 RPM ratio (pull-down/input).
Regarding “GATGATTGTTCTCCCAGCTGATGAATTTCCTCCTTCGAGTAAACAAATTTTCCTAATCTTTCTGTTCAAGCGCCATCTAC”, the binding signal is 0.839 RPM ratio (pull-down/input).
As for “GATGATTGTTCTCCCAGCTGATGAATTTTCTCAATCGAGTAAACAAATTTTCCTAATCTTTCTGTTCAAGCGCCATCTAC”, the binding signal was 1.07 RPM ratio (pull-down/input).
Consider “GATGATTGTTCTCCCAGCTGATGAATTGGACGTCTCGAGTAAACAAATTTTCCTAATCTTTCTGTTCAAGCGCCATCTAC”, for which the binding signal is 0.796 RPM ratio (pull-down/input).
The figure for “GATGATTGTTCTCCCAGCTGATGAATTAAAAAGTTCGAGTAAACAAATTTTCCTAATCTTTCTGTTCAAGCGCCATCTAC” is 0.935 RPM ratio (pull-down/input); for “GATGATTGTTCTCCCAGCTGATGAATTCTATGCGTCGAGTAAACAAATTTTCCTAATCTTTCTGTTCAAGCGCCATCTAC” it is 1.02 RPM ratio (pull-down/input).
“GATGATTGTTCTCCCAGCTGATGAATTCCCCCTATCGAGTAAACAAATTTTCCTAATCTTTCTGTTCAAGCGCCATCTAC”: the binding signal was 0.813 RPM ratio (pull-down/input).
Consider “GATGATTGTTCTCCCAGCTGATGAATTATGTTAATCGAGTAAACAAATTTTCCTAATCTTTCTGTTCAAGCGCCATCTAC”, for which the binding signal is 1.21 RPM ratio (pull-down/input).
Next, “GATGATTGTTCTCCCAGCTGATGAATTCCACGACTCGAGTAAACAAATTTTCCTAATCTTTCTGTTCAAGCGCCATCTAC”: 0.81 RPM ratio (pull-down/input); “GATGATTGTTCTCCCAGCTGATGAATTACACTGTTCGAGTAAACAAATTTTCCTAATCTTTCTGTTCAAGCGCCATCTAC”: 1.23 RPM ratio (pull-down/input).
Next, “GATGATTGTTCTCCCAGCTGATGAATTTCTAGGCTCGAGTAAACAAATTTTCCTAATCTTTCTGTTCAAGCGCCATCTAC”: 0.723 RPM ratio (pull-down/input); “GATGATTGTTCTCCCAGCTGATGAATTCACCGAATCGAGTAAACAAATTTTCCTAATCTTTCTGTTCAAGCGCCATCTAC”: 0.939 RPM ratio (pull-down/input).
With “GATGATTGTTCTCCCAGCTGATGAATTAGCCGCATCGAGTAAACAAATTTTCCTAATCTTTCTGTTCAAGCGCCATCTAC”, the binding signal is 1.07 RPM ratio (pull-down/input).
In the case of “GATGATTGTTCTCCCAGCTGATGAATTTCACACCTCGAGTAAACAAATTTTCCTAATCTTTCTGTTCAAGCGCCATCTAC”, the binding signal was 0.791 RPM ratio (pull-down/input).
Regarding “GATGATTGTTCTCCCAGCTGATGAATTGGCCTTATCGAGTAAACAAATTTTCCTAATCTTTCTGTTCAAGCGCCATCTAC”, the binding signal was 0.84 RPM ratio (pull-down/input).
The figure for “GATGATTGTTCTCCCAGCTGATGAATTCAAGGTATCGAGTAAACAAATTTTCCTAATCTTTCTGTTCAAGCGCCATCTAC” is 0.993 RPM ratio (pull-down/input); for “GATGATTGTTCTCCCAGCTGATGAATTATCCTACTCGAGTAAACAAATTTTCCTAATCTTTCTGTTCAAGCGCCATCTAC” it is 1.03 RPM ratio (pull-down/input).
Next, “GATGATTGTTCTCCCAGCTGATGAATTATGTTGGTCGAGTAAACAAATTTTCCTAATCTTTCTGTTCAAGCGCCATCTAC”: 1.87 RPM ratio (pull-down/input).
For “GATGATTGTTCTCCCAGCTGATGAATTTACTGCGTCGAGTAAACAAATTTTCCTAATCTTTCTGTTCAAGCGCCATCTAC”, the binding signal is 1.22 RPM ratio (pull-down/input).
Consider “GATGATTGTTCTCCCAGCTGATGAATTGCAATTATCGAGTAAACAAATTTTCCTAATCTTTCTGTTCAAGCGCCATCTAC”, for which the binding signal is 1.67 RPM ratio (pull-down/input).
